Experimental data as given in publication PMC4336329 (PLoS ONE, 2015).
The campaign covered roughly 310,000 compounds. About 14,000 (4.5%) showed an effect of 50% or more. The effect is printed as a negative number. The list shows a part of the results. Where a SMILES comes first, the peptide text is derived from it. [ ]: non-standard residue; d: D form. The star is where a group is joined. ξ: configuration not given here. Boc = CC(C)(C)OC(=O)*; ξP = O=C(O)C1CCCN1

Each molecule was assayed against human ether-à-go-go-related gene (hERG) potassium channel (human, UniProt Q12809) (assay: primary screen, population patch clamp on CHO cells stably expressing hERG).
Chain of human ether-à-go-go-related gene (hERG) potassium channel (Q12809 whole entry, looked up): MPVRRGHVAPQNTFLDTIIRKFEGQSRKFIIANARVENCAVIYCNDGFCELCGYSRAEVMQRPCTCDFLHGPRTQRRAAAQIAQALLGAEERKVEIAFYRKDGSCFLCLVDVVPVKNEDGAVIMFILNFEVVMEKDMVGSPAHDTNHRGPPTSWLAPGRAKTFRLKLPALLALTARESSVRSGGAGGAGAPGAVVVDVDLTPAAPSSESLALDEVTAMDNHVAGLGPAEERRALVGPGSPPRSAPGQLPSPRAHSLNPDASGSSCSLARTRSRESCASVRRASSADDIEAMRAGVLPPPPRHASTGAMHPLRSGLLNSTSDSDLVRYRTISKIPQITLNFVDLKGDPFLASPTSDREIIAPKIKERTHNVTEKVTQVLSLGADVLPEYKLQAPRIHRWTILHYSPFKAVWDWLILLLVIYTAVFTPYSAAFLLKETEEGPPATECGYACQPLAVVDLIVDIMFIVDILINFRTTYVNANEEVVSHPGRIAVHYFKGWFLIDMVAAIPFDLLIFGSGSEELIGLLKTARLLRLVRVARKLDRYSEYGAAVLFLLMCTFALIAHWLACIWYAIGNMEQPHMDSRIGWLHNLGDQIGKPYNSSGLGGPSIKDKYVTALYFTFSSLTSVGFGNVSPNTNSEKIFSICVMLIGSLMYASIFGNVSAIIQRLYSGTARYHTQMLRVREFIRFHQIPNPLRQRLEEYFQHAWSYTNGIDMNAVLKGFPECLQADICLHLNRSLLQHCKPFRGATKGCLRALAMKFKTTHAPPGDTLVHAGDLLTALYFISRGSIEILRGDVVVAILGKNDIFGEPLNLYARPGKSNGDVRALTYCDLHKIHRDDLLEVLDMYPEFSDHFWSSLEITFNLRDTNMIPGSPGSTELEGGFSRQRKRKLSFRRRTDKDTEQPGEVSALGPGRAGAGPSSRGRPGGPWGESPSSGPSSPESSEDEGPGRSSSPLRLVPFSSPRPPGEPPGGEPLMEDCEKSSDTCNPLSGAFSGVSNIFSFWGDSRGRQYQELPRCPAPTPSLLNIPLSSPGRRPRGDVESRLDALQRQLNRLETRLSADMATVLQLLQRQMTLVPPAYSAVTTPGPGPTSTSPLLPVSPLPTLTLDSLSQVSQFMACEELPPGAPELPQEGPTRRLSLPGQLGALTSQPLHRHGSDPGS
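Note: peak tail current of the secondary pulse compared with the same well before compound.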

SMILES	hERG current change (%, negative = inhibition) at 10uM [%]
O=C(c1cccc(Cl)c1)N1CCN(c2ccc(N3CCOCC3)nn2)CC1	-34.8
CC1CC(C(F)F)n2nc(C(=O)O)cc2N1 (stereo not drawn)	-5.09
COc1ccccc1N(C(=O)c1ccncc1)c1nc(-c2ccc([N+](=O)[O-])cc2)cs1	-4.73
C(=N\N1CCN(Cc2cccc3ccccc23)CC1)/c1ccco1	-25.5
Cn1c(=O)c2c(ncn2CC(=O)NCc2cccnc2)n(C)c1=O	5.06
CS(=O)(=O)N1CCc2cc(S(=O)(=O)N3CCCCC3)ccc21	-14.8
O=C(NNC(=O)c1cccnc1)NC12CC3CC(CC(C3)C1)C2	-2.41
O=P(C(=NCCO)NO)(N1CCOCC1)N1CCOCC1	9.46
CN(C)C(=O)c1cccn(Cc2ccc(C(F)(F)F)cc2)c1=O	6.32
CCOc1ccc(NC(=O)C2CC(=O)N(c3ccc4c(c3)OCCO4)C2)cc1OCC (stereo not drawn)	-7.99
CCCCOC(=O)CNc1nnc(SCC(=O)OCC)[nH]c1=O	5.93
Cc1ccccc1CSc1nnc(-c2ccco2)n1Cc1ccco1	-75.4
COc1ccccc1OCC(=O)NNC(=O)c1cnccn1	2.77
Cc1nn(CCCC(=O)NCc2ccco2)c(=O)c2nn(-c3ccccc3)c(C)c12	14.7
CCSc1nc2ccccc2n1CC(=O)N1CCOCC1	-5.37
CC1Cc2ccccc2N1c1nc(C2CC2)nc2c1nnn2Cc1ccccc1 (stereo not drawn)	11.5
O=C(NNc1ccc([N+](=O)[O-])cc1)C12CC3CC(CC(C3)C1)C2	19.5
O=C(Oc1ccc(-n2cnnn2)cc1)c1ccccc1	8.29
Cc1cc(N2CCN(S(=O)(=O)c3ccccc3)CC2)c2ccccc2n1	-73.3
Clc1nnc(NN=C2CCCC2)c2ccccc12	-1.78
COc1ccccc1CCNC(=O)CSc1ccc(-c2ccco2)nn1	-38.3
CC1Oc2cc3c(-c4c(O)cc(O)c5c(O)c6c(cc45)OC(C)C(C)C6=O)c(O)cc(O)c3c(O)c2C(=O)C1C (stereo not drawn)	10.8
CCc1cccc(OCC(=O)Nc2ccc(C(=O)O)cc2NC(=O)COc2cccc(CC)c2)c1	21.1

SMILES	hERG current change (%, negative = inhibition) at 10uM [%]
Cc1ccc(C(c2sc3nc(C)nn3c2O)N2CC(C)OC(C)C2)cc1 (stereo not drawn)	13.3
O=C(NCc1ccccc1)c1cc(-c2ccco2)on1	-41.6
COc1ccc2nc(NC(=O)CCc3ccc(OC)c(OC)c3)sc2c1	26.2
O=c1[nH]c(CN2CC=C(c3ccccc3)CC2)nc2scc(-c3ccccc3)c12	6.72
COc1cccc(CNS(=O)(=O)c2cc(-c3cc(C)no3)ccc2C(C)C)c1	-7.33
CCOc1ccc(Nc2nc(Cc3nnc(SCC(=O)c4ccc(C)cc4)o3)cs2)cc1	7.7
CCn1nc(C)cc1C(=O)N1CCCC(C(=O)c2ccccc2SC)C1 (stereo not drawn)	-1.16
CCSCc1nnc(SCC(=O)Nc2ccc(OC)cc2)n1C	0.453
O=C1c2ccccc2C(=O)N1c1ccc(Cc2ccncc2)cc1	-11.4
C=CCNC(=O)c1cccc(Br)c1	21.6
O=C1CC[C@@H](CN(Cc2ccccn2)Cc2nc(-c3ccc(C(F)(F)F)cc3)no2)N1	-62.7
O=C(NCc1ccc(Cl)cc1)Nc1ccc(F)cc1	27.6
CCN(CC(=O)NC(C)(C)C)C(=O)c1ccccc1SCC(=O)NC1CCCCCCC1	17.6
CC(C)N1CCC(N2CCN(C3CCCCCC3)CC2CCO)CC1 (stereo not drawn)	15.1
Cl.NCCSC1CC(=O)N(Cc2ccc(F)cc2)C1=O (stereo not drawn)	-20.4
COc1ccc(NC(=O)c2cccc([N+](=O)[O-])c2)cc1	13
COC(=O)CNC(=O)C1CCCN1C(=O)OC(C)(C)C (stereo not drawn) (Boc-[ξP]-Gly-OMe)	6.85
CC(C)CNC(=O)COC(=O)c1c2c(nc3ccccc13)CCC2	4.12
Cc1nnc(SCC(=O)Nc2sccc2C(N)=O)n1Cc1ccccc1	-7.55
CCOC(=O)/C(C#N)=C/c1cccc(C)c1	12.6
O=C(Cc1ccc(Cl)cc1)N1CCc2ccccc2C1	4.94
CC(C(=O)NC1CCCC1)N(C(=O)CS(=O)CC(=O)Nc1ccc(F)cc1)c1ccc2c(c1)OCCO2 (stereo not drawn)	-3.58
